# Reference: PubChem BioAssay (Tox21)
# Values joined by “and” are separate entries in the source; they are usually repeats but may differ in a detail not shown here. Identical values can stand only once. The inconclusive results got no clear call from the source; some entries with a clear call stand among them for comparison. For some assays here: A potency beside an inconclusive call is a rough fit, not a confirmed value. Some structures have more than one record in an assay (separate samples or runs), and their calls can disagree. Active and inactive are the calls of the source. Calls follow the shape of the dose curve; as a rule, active = well fitted curve in the direction sought with a large enough effect in the repeat runs; inconclusive = weak or mixed curves; inactive = no such curve, though single readings can be large; an effect the other way counts as inactive or inconclusive.
# Columns and labels:
# [1] = qHTS assay to identify small molecule antagonists of the retinoid acid receptor (RAR) signaling pathway - cell viability counter screen (AID 1159551); also: nearly all actives have a fitted effect of over 35% in size; also: potency is read from the fitted curve at half-maximal effect
# Method in brief: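 Cytotoxicity counter screen in C3RL4 cells: 6 h compound exposure with 1 uM retinol (final), viability from cellular ATP by luminescence.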
# [2] = qHTS assay to identify small molecule agonists of the RXR signaling pathway - cell viability counter screen (AID 1159529); also: nearly all actives have a fitted effect of over 50% in size; also: potency is read from the fitted curve at half-maximal effect
# Method in brief: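 Luminescence from CellTiter-Glo (30 min, RT) measured viability in the same wells as the beta-lactamase reporter readout. Cells: GeneBLAzer RXR-alpha HEK 293T, 2% charcoal-stripped FBS. Compound exposure 16 hr, 37 C.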
# [3] = qHTS assay to identify small molecule agonists of the retinoic acid receptor (RAR) signaling pathway (AID 1159553); conditions: C3RL4 RARE luciferase reporter, agonist, 6 h; activation: at 73.3 µM (top of the series) unless noted; also: potency is read from the fitted curve at half-maximal effect; as to activation: % is scaled to controls: 0 for no effect and ±100 for the full control effect
# Method in brief: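 Agonist activity was scored in C3RL4 cells bearing a retinoic acid response element luciferase construct. Cells were treated with compounds for 6 hr at 37 C, and luciferase signal was measured as luminescence.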
# [4] = qHTS assay to identify small molecule antagonists of the retinoic acid receptor (RAR) signaling pathway (AID 1159552; also: potency is read from the fitted curve at half-maximal effect; nearly all actives have a fitted effect of over 50% in size)
# Method in brief: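 Luminescence from a RARE luciferase reporter in C3RL4 cells served as read-out. Cells received compounds together with 1 uM final retinol and incubated 6 hr at 37 C before detection reagent was added for 30 min at room temperature.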
# [5] = qHTS assay to identify small molecule antagonists of the estrogen related receptor signaling pathway with the pleiotropic PPARgamma coactivator (PGC) cell viability counter screen (AID 1224822; also: potency is read from the fitted curve at half-maximal effect;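 also: viability read after 17.5 h compound exposure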)
# Method in brief: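 Seed PGC/ERR cells (2,000/well); incubate 6 h at 37 C/5% CO2; pin-transfer compounds in DMSO; incubate 17.5 h at 37 C; add CellTiter-Fluor; after 30 min read fluorescence.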
# [6] = qHTS assay to identify small molecule antagonists of the estrogen related receptor (ERR) signaling pathway - cell viability counter screen (AID 1224818); also: potency is read from the fitted curve at half-maximal effect;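 also: viability measured after 17.5 h of compound exposure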
# Method in brief: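 Cells carrying the ERR pathway reporter were seeded and incubated for 6 hours before compound addition. After a 17.5-hour exposure at 37 C, live-cell protease activity was measured by CellTiter-Fluor fluorescence following 30 minutes of incubation.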
# [7] = qHTS assay to identify small molecule agonists of the estrogen related receptor (ERR) signaling pathway (AID 1224820); conditions: ERR reporter cell line, luciferase agonist mode; at 46.1 µM (top of the series); also: % is scaled to controls: 0 for no effect and ±100 for the full control effect
# Method in brief: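 Cells: ERR line from NTP, 2,000/well. Pre-incubation 6 h, 37 C/5% CO2. Compound (DMSO) pin transfer, 18 h 37 C. One-Glo, 30 min RT, luminescence.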
# Tags tell the direction and shape of the fitted curve.
smiles,measurement,setting,value
CC(=O)[C@@]1(O)CC[C@H]2[C@@H]3C[C@H](C)C4=CC(=O)CC[C@]4(C)[C@H]3CC[C@@]21C,Potency,[1],inactive
NCCNc1cccc2ccccc12,Potency,[2],"inconclusive: 54.9 µM [cytotoxic, single point]"
same,Potency,[3],"inconclusive: 34.3 µM [inhibitor, partial curve, poor fit] and inconclusive: 66.9 µM [inhibitor, single point] and inconclusive: 18.8 µM [inhibitor, partial curve, poor fit]"
Nc1ccc2cc3ccc(N)cc3nc2c1,Potency,[2],"inconclusive: 12.3 µM [cytotoxic, partial curve, poor fit] and inconclusive: 8.49 µM [cytotoxic, partial curve]"
same,Potency,[1],"inconclusive: 30.6 µM [rising, partial curve] and inconclusive: 29.8 µM [rising, partial curve]"
same,Potency,[4],active: 4.33 µM and active: 16.8 µM
same,Potency,[3],"inconclusive: 6.86 µM [inhibitor, partial curve, poor fit] and inconclusive: 23.7 µM [inhibitor, partial curve]"
CCCCOC(=O)/C=C\C(=O)OCCCC,Potency,[2],"inconclusive: 9.01 µM [cytotoxic, partial curve, poor fit]"
same,Potency,[4],"inconclusive: 25.2 µM [inhibitor, full curve]"
CCCCCCCCCCCCCC[N+](C)(C)C,Potency,[2],active: 10.6 µM and active: 15.5 µM and active: 21.3 µM
same,Potency,[1],"inconclusive: 59.1 µM [cytotoxic, single point] and active: 61.1 µM"
same,Potency,[3],"inconclusive: 43.2 µM [inhibitor, partial curve]"
same,activation,[3],inconclusive: -8.33% [phenotype inactive]
CCC1COC(=O)O1 (stereo not drawn),Potency,[1],inactive
CCOC(=O)N1CCC(n2c(=O)[nH]c3cc(Cl)ccc32)CC1,Potency,[2],"inconclusive: 6.74 µM [rising, partial curve, poor fit]"
CCCCc1cc2ccccc2c(OCCN(C)C)n1,Potency,[2],"inconclusive: 16.9 µM [cytotoxic, partial curve]"
same,Potency,[4],inconclusive: 29.8 µM [inhibitor]
O=[N+]([O-])c1ccc2c(c1)Cc1ccccc1-2,Potency,[2],"inconclusive: 4.36 µM [rising, partial curve]"
Cc1ccc2c(n1)Oc1ccc(C(C)C(=O)OCC(=O)N(C)C)cc1C2 (stereo not drawn),Potency,[2],"inconclusive: 10.7 µM [cytotoxic, partial curve, poor fit]"
same,Potency,[3],active: 10.6 µM and active: 8.41 µM
CCCCCCCCCCCCCCCBr,Potency,[1],inactive
Nc1nc(=S)c2[nH]cnc2[nH]1,Potency,[2],"inconclusive: 7.56 µM [cytotoxic, partial curve] and inconclusive: 2.19 µM [cytotoxic, full curve] and inconclusive: 1.34 µM [cytotoxic, full curve]"
same,Potency,[1],"inconclusive: 23.7 µM [cytotoxic, partial curve] and inconclusive: 1.88 µM [cytotoxic, partial curve, poor fit]"
same,Potency,[4],"active: 24.3 µM and inconclusive: 1.68 µM [inhibitor, full curve]"
CCOC(N)=O,Potency,[1],inactive
O=c1[nH]cnc2[nH]ncc12,Potency,[2],"inconclusive: 56.2 µM [cytotoxic, single point] and inactive"
same,Potency,[5],inactive
O=S(=O)(O)c1ccc2nc(-c3ccccc3)[nH]c2c1,Potency,[2],"inconclusive: 16.5 µM [cytotoxic, full curve]"
same,Potency,[1],"inconclusive: 51.8 µM [cytotoxic, partial curve] and inconclusive: 21.1 µM [cytotoxic, partial curve]"
CC(C)COC(=O)c1ccccc1O,Potency,[2],inactive
same,Potency,[1],inactive
COc1ccc(C(=O)CC(=O)c2ccc(C(C)(C)C)cc2)cc1,Potency,[2],inconclusive: 26.8 µM [cytotoxic]
same,Potency,[3],active: 58.7 µM
CCCCC/C=C\C/C=C\CCCCCCCC(=O)O,Potency,[2],"inconclusive: 76.3 µM [cytotoxic, single point] and inconclusive: 43.6 µM [cytotoxic, partial curve]"
same,Potency,[1],inactive
same,Potency,[4],"inconclusive: 37.9 µM [inhibitor, partial curve, poor fit] and inconclusive: 27.3 µM [inhibitor]"
CCCCN,Potency,[2],inactive
COc1cc2nc(N3CCN(C(=O)c4ccco4)CC3)nc(N)c2cc1OC,Potency,[2],"inconclusive: 11.7 µM [cytotoxic, partial curve, poor fit]"
same,Potency,[6],"inconclusive: 33.5 µM [cytotoxic, partial curve, poor fit]"
same,Potency,[5],"inconclusive: 29.8 µM [cytotoxic, single point]"
O=c1cc(-c2ccc(O)cc2)oc2cc(O)cc(O)c12,Potency,[2],inactive
same,Potency,[6],"inconclusive: 29.8 µM [cytotoxic, partial curve, poor fit]"
same,Potency,[5],"inconclusive: 18.8 µM [cytotoxic, partial curve, poor fit]"
CC1(C)CO[C@@H](CC(=O)O)CN1,Potency,[2],inactive
same,Potency,[3],inactive
Oc1c(Cl)cc(Cl)cc1Sc1cc(Cl)cc(Cl)c1O,Potency,[2],"inconclusive: 55.9 µM [cytotoxic, partial curve, poor fit] and inconclusive: 49 µM [cytotoxic] and inconclusive: 2.39 µM [cytotoxic, single point]"
same,Potency,[1],"inconclusive: 30.7 µM [cytotoxic] and inconclusive: 21.7 µM [cytotoxic, partial curve, poor fit]"
CC(COc1ccccc1)N(CCCl)Cc1ccccc1 (stereo not drawn),Potency,[2],"inconclusive: 17.4 µM [cytotoxic, partial curve, poor fit]"
COCCOC(=O)C1=C(C)NC(C)=C(C(=O)OC(C)C)C1c1cccc([N+](=O)[O-])c1 (stereo not drawn),Potency,[5],"inconclusive: 21.1 µM [cytotoxic, partial curve, poor fit]"
CN1CCC(=C2c3ccccc3C=Cc3ccccc32)CC1,Potency,[5],inconclusive: 24.6 µM [cytotoxic]
OCCN(CCO)c1nc(N2CCCCC2)c2nc(N(CCO)CCO)nc(N3CCCCC3)c2n1,Potency,[6],inconclusive: 22 µM
C[C@](N)(Cc1ccc(O)cc1)C(=O)O,Potency,[6],inactive
Cc1cccc(C)c1NC(=O)C(C)N (stereo not drawn),activation,[7],inactive: 3.62%
